# Results taken from paper PMC5540273 (PLoS ONE, 2017).
# This list holds what a sample rich in strong results left over.
# Key:
# Details in all cases: concentration: 1 μM,replicates: in singlicate; n = 1
# [1] = tested on: TNK1
# [2] = tested on: TNK2
# [3] = tested on: TNNI3K
# [4] = tested on: T1, TRKA
# T1 construct: gene NTRK1
# [5] = tested on: TRKB
# [6] = tested on: T2, TRKC
# T2 construct: gene NTRK3
# [7] = tested on: TRPM6
# [8] = tested on: TSSK1B
# [9] = tested on: TSSK3
# [10] = tested on: TTK
# 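Further: KINOMEscan kinase panel screen.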
SMILES,%Inh [1] [%],%Inh [2] [%],%Inh [3] [%],%Inh [4] [%],%Inh [5] [%],%Inh [6] [%],%Inh [7] [%],%Inh [8] [%],%Inh [9] [%],%Inh [10] [%]
O=C(O)c1ccc(-c2nc(-c3ccc(F)cc3)c(-c3ccncc3)[nH]2)cc1 [SB-202620],15,0,3,94,0,0,27,0,8,32
O=C1NC(=O)C(c2ccccc2)=C1Nc1cc(Cl)c(O)c(Cl)c1 [SB-390530],0,0,0,24,28,22,0,19,0,23
Cc1ccc(C)c(Oc2nccc(-c3c(-c4ccc(F)cc4)ncn3C3CCNCC3)n2)c1.O=C(O)C(F)(F)F.O=C(O)C(F)(F)F.O=C(O)C(F)(F)F [SB-284852],15,0,0,0,0,0,0,0,0,0
O=C1NC(=O)c2c1c(-c1ccccc1)cc1[nH]c3ccc(O)cc3c21,11,13,17,70,31,10,15,35,3,0
O=C1NC(=O)C(c2ccc(Cl)cc2)=C1Nc1cccc(C(=O)O)c1 [SB-360737],0,10,0,0,5,20,48,12,1,0
O=C1NC(=O)C(c2ccccc2Cl)=C1Nc1ccccc1 [SB-376715],0,0,13,47,0,10,0,0,12,0
Cc1cc(C)cc(Oc2nccc(-c3c(-c4ccc(F)cc4)ncn3C3CCNCC3)n2)c1.O=C(O)C(F)(F)F.O=C(O)C(F)(F)F.O=C(O)C(F)(F)F [SB-284851],10,0,0,0,0,0,0,0,0,12
O=C1NC(=O)C(c2ccc(Cl)cc2)=C1Nc1cccc(O)c1 [SB-333613],22,0,9,19,10,35,9,2,43,0
COc1cccc(C2=C(Nc3ccc(SC)cc3)C(=O)NC2=O)c1 [SB-331032],4,0,0,18,11,9,0,0,15,0
O=C1NC(=O)C(c2ccc(Cl)cc2)=C1Nc1ccc(O)c(Cl)c1 [SB-405367],0,0,0,8,38,38,0,0,0,3
O=C1NC(=O)C(c2ccccc2)=C1Nc1ccc(Cl)c(C(=O)O)c1 [SB-390532],2,15,17,0,60,45,42,29,0,0
O=C1NC(=O)C(c2ccccc2Cl)=C1Nc1cccc(C(=O)O)c1 [SB-390526],0,2,11,6,7,17,0,4,8,0
CS(=O)(=O)c1ccccc1-c1nc(-c2ccc(F)cc2)c(-c2ccncc2)[nH]1 [SB-213663],0,0,0,31,27,6,0,0,43,0
CSc1ccc(NC2=C(c3cccc(Cl)c3)C(=O)NC2=O)cc1 [SB-341528],2,0,0,7,19,17,0,0,0,19
COc1ccc(C2=C(Nc3cccc(Cl)c3)C(=O)NC2=O)cc1 [SB-326892],36,0,0,0,0,0,0,0,0,0
O=C1NC(=O)C(c2ccc(Cl)cc2)=C1Nc1ccccc1 [SB-317661],0,0,0,0,23,10,26,0,0,0
